According to patent publication US20240141364A1, “DRUG-REGULATABLE TRANSCRIPTIONAL REPRESSORS” (Senti Biosciences, Inc., priority 2021, published 2024):

B1: SB03759: degron-A(EAAAK)3A-ZF10-minKrab-AuSLDE; SEQ ID NO: 61 (AA), 62 (nucleic acid) (protein)
chain: FNVLMVHKRSHTGERPLQCEICGFTCRQKGNLLRHIKLHTGEKPFKCHLCNYACQRRDALAEAAAKEAAAKEAAAKADYKDHDGDYKDHDIDYKDDDDKMAPKKKRKVTCRSRPGERPFQCRICMRNFSRRHGLDRHTRTHTGEKPFQCRICMRNFSDHSSLKRHLRTHTGSQKPFQCRICMRNFSVRHNLTRHLRTHTGEKPFQCRICMRNFSDHSNLSRHLKTHTGSQKPFQCRICMRNFSQRSSLVRHLRTHTGEKPFQCRICMRNFSESGHLKRHLRTHLRGSGGGGSGGTRTLVTFKDVFVDFTREEWKLLDTAQQIVYRNVMLENYKNLVSLGY
B2: SB03936: degron-A(EAAAK)3A-HDAC4-ZF10; SEQ ID NO: 63 (AA), 64 (nucleic acid) (protein)
chain: FNVLMVHKRSHTGERPLQCEICGFTCRQKGNLLRHIKLHTGEKPFKCHLCNYACQRRDALAEAAAKEAAAKEAAAKASSQSHPDGLSGRDQPVELLNPARVNHMPSTVDVATALPLQVAPSAVPMDLRLDHQFSLPVAEPALREQQLQQELLALKQKQQIQRQILIAEFQRQHEQLSRQHEAQLHEHIKQQQEMLAMKHQQELLEHQRKLERHRQEQELEKQHREQKLQQLKNKEKGKESAVASTEVKMKLQEFVLNKKKALAHRNLNHCISSDPRYWYGKTQHSSLDQSSPPQSGVSTSYNHPVLGMYDAKDDFPLRKTASEPNLKLRSRLKQKVAERRSSPLLRRKDGPVVTALKKRPLDVTDSACSSAPGSGPSSPNNSSGSVSAENGIAPAVPSIPAETSLAHRLVAREGSAAPLPLYTSPSLPNITLGLPATGPSAGTAGQQDTERLTLPALQQRLSLFPGTHLTPYLSTSPLERDGGAAHSPLLQHMVLLEQPPAQAPLVTGLGALPLHAQSLVGADRVSPSIHKLRQHRPLGRTQSAPLPQNAQALQHLVIQQQHQQFLEKHKQQFQQQQLQMNKIIPKPSEPARQPESHPEETEEELREHQALLDEPYLDRLPGQKEAHAQAGVQVKQEPIESDEEEAEPPREVEPGQRQPSEQELLFRQQALLLEQQRIHQLRNYQASMEAAGIPVSFGGHRPLSRAQSSPASATFPVSVQEPPTKPRFTTGLVYDTLMLKHQCTCGSSSSHPEHAGRIQSIWSRLQETGLRGKCECIRGRKATLEELQTVHSEAHTLLYGTNPLNRQKLDSKKLLGSLASVFVRLPCGGVGVDSDTIWNEVHSAGAARLAVGCVVELVFKVATGELKNGFAVVRPPGHHAEESTPMGFCYFNSVAVAAKLLQQRLSVSKILIVDWDVHHGNGTQQAFYSDPSVLYMSLHRYDDGNFFPGSGAPDEVGTGPGVGFNVNMAFTGGLDPPMGDAEYLAAFRTVVMPIASEFAPDVVLVSSGFDAVEGHPTPLGGYNLSARCFGYLTKQLMGLAGGRIVLALEGGHDLTAICDASEACVSALLGNELDPLPEKVLQQRPNANAVRSMEKVMEIHSKYWRCLQRTTSTAGRSLIEAQTCENEEAETVTAMASLSVGVKPAEKRPDEEPMEEEPPLGGGGSGGTDYKDHDGDYKDHDIDYKDDDDKMAPKKKRKVTCRSRPGERPFQCRICMRNFSRRHGLDRHTRTHTGEKPFQCRICMRNFSDHSSLKRHLRTHTGSQKPFQCRICMRNFSVRHNLTRHLRTHTGEKPFQCRICMRNFSDHSNLSRHLKTHTGSQKPFQCRICMRNFSQRSSLVRHLRTHTGEKPFQCRICMRNFSESGHLKRHLRTHLRGS
B3: SB04397: all E. coli cod opt: d913-A(EAAAK)3A-ZF10-1-minKrab-BFP-2x(AuSLDE); SEQ ID NO: 65 (AA), 66 (nucleic acid) (protein)
chain: FNVLMVHKRSHTGERPLQCEICGFTCRQKGNLLRHIKLHTGEKPFKCHLCNYACQRRDALAEAAAKEAAAKEAAAKADYKDHDGDYKDHDIDYKDDDDKMAPKKKRKVTCRSRPGERPFQCRICMRNFSRRHGLDRHTRTHTGEKPFQCRICMRNFSDHSSLKRHLRTHTGSQKPFQCRICMRNFSVRHNLTRHLRTHTGEKPFQCRICMRNFSDHSNLSRHLKTHTGSQKPFQCRICMRNFSQRSSLVRHLRTHTGEKPFQCRICMRNFSESGHLKRHLRTHLRGSGGGGSGGTRTLVTFKDVFVDFTREEWKLLDTAQQIVYRNVMLENYKNLVSLGYGGGGSGGTMSELIKENMHMKLYMEGTVDNHHFKCTSEGEGKPYEGTQTMRIKVVEGGPLPFAFDILATSFLYGSKTFINHTQGIPDFFKQSFPEGFTWERVTTYEDGGVLTATQDTSLQDGCLIYNVKIRGVNFTSNGPVMQKKTLGWEAFTETLYPADGGLEGRNDMALKLVGGSHLIANIKTTYRSKKPAKNLKMPGVYYVDYRLERIKEANNETYVEQHEVAVARYCDLPSKLGHKLN

Assays:
Assay type in all cases: cell-based
[1] = test system: mCherry linked to an ITM-responsive promoter in U87-MG reporter cells; assay: mCherry reporter expression with N-terminal or C-terminal degron repressors, with or without pomalidomide (FACS); conditions: no drug vs 1 μM pomalidomide; mCherry gMFI; FIG. 6A
Description: A reporter cell line was produced as described in Example 2. Reporter cells were transduced (50,000 cells/transduction) with lentivirus (50,000 pg each, as titered by p24 assay) encoding constructs either having the degron N-terminal to the inducible transcription modulator (ITM) (Table 8) or having the degron C-terminal to the ITM (Table 9). Constructs SB03758 and SB03759 as described in Example 2 were also included in this experiment. Each construct format is described from 5′ to 3′ (ORF from N to C terminus).
On day 2 following transduction, cells transduced with each construct were incubated either in the presence of 1 μM pomalidomide or in the absence of the drug. On day 5 of drug treatment, cells were assayed by Fluorescence-Activated Cell Sorting (FACS) for mCherry expression. The geometric mean fluorescent intensity (MFI) of mCherry for each construct having the degron at the N-terminus is shown in FIG. 6A. The fold difference between the geometric MFI of mCherry for the no drug condition versus the pomalidomide treatment condition for each construct having the degron at the N-terminus was calculated as shown in FIG. 6B. […] The fold difference between the geometric MFI of mCherry for the no drug condition versus the pomalidomide treatment condition for each construct having the degron at the C-terminus was calculated as shown in FIG. 7B.

[2] = test system: mCherry linked to an ITM-responsive promoter in U87-MG reporter cells; assay: mCherry reporter expression in reporter cells transduced with degron-linked repressors, with or without pomalidomide (FACS)
Description: A reporter cell line was produced by transducing U87-MG cells with lentivirus encoding mCherry linked to an ITM-responsive promoter of SEQ ID NO: 56 including a EF1a core promoter sequence with a zinc finger binding domain composed of four ZF10-1 binding sites upstream of the core promoter sequence.
A reporter cell line was produced by transducing U87-MG cells with lentivirus encoding mCherry linked to an ITM-responsive promoter of SEQ ID NO: 56 including an EF1a core promoter sequence with a zinc finger binding domain composed of four ZF10-1 binding sites upstream of the core promoter sequence. Reporter cells were transduced (50,000 cells/transduction) with lentivirus (50,000 pg each, as titered by p24 assay) encoding each construct as shown in Table 6. Each construct format is described from 5′ to 3′ (ORF from N to C terminus). Constructs SB03757 and SB03760 include a minKrab repression domain that is codon optimized for E. coli, and constructs SB03758 and SB03761. For constructs SB03758 and SB03761, the entire construct was codon optimized for E. coli.
On day 2 following transduction, cells were incubated either in the presence of 1 μM pomalidomide or in the absence of the drug. On day 5 of drug treatment, cells were assayed by Fluorescence-Activated Cell Sorting (FACS) for mCherry expression.

[3] = test system: IL-12 linked to an ITM-responsive promoter (SB04640) in U87MG cells; assay: IMiD-ON regulated IL-12 expression, pomalidomide titration, IL12 p70 ELISA of supernatant; conditions: for IL-12 expression upon addition of the IMiD: drug-free vs pomalidomide 1 nM, 10 nM, 100 nM, 1 uM, FIG. 8
Method: (§1) 50,000 U87MG cells were seeded in 24 w dish 18-14 hours before transduction then transduced with 25 k pg of degron-linked repressor (SB03759, SB03936, or SB04397) and 25 k pg of IL12 reporter construct (SB04640) (virus was quantified by p24 ELISA). A construct encoding IL-12 linked to an ITM-responsive promoter including an EFS promoter sequence with a zinc finger binding domain composed of four ZF10-1 binding sites upstream of the EFS promoter sequence (SEQ ID NO: 67) was used as a reporter.
For Pomalidomide titration experiments, two days post transduction, cells were split into drug free media or 1 uM pomalidomide conditions. Then 3 days later, 100 k cells of each condition were seeded into a 24 w plate and 24 hours later, supernatant was collected and assayed using IL12 p70 ELISA kit (#D1200 R&D Systems) to quantity IL-12.

[4] = test system: IL-12 linked to an ITM-responsive promoter (SB04640) in U87MG cells; assay: Kinetics of IMiD ON switch, IL-12 in supernatant after pomalidomide or iberdomide; conditions: for IL-12 expression levels in supernatant over time: SB04640 reporter plus repressor vs reporter only control
Method: as §1
For kinetic experiment studies, transduced cells were seeded 100 k cells per well in 24 w plate. Then 24 hours later, supernatant was replaced with drug-free or 1 uM Pomalidomide or Iberdomide. Supernatant was harvested at indicated elapsed times (3 hours, 6 hours, 12 hours, 16 hours and 24 hours) post drug treatment.

Row | Molecule | repression of reporter expression and its release by drug [1] | drug-induced release of repression (fold difference of geometric MFI of mCherry, no drug vs pomalidomide) ([2]; 1 μM pomalidomide, day 5 of drug treatment, FIG. 3) | drug-dependent regulation of repression (mCherry histogram plots) ([2]; presence or absence of 1 μM pomalidomide, FIGS. 4A & 4B) | IL-12 expression upon addition of the IMiD [3] | time to detected expression of IL-12 after adding IMiDs ([4]; 1 uM IMiD) [h] | IL-12 expression levels in supernatant over time ([4]; 1 uM Iberdomide, FIG. 9 bottom panel) | IL-12 expression levels normalized to SB04640 reporter only ([4]; 1 uM Pomalidomide, hours 12 and 16, FIG. 10) | IL-12 expression levels in supernatant over time ([4]; 1 uM pomalidomide, FIG. 9 top panel) | Pomalidomide concentration at which IL-12 expression recovers to reporter only levels ([3]; IL-12 as fraction of constitutive IL-12 reporter, FIG. 8 bottom panel) [nM]
1 | B1 | reversibility of repression | drug-induced release of repression was possible | regulatable in a drug-dependent manner |  |  |  |  |  | 
2 | B2 |  |  |  | increased |  |  |  |  | 
3 | B3 |  |  |  | increased | ≤ 24 | increased | increased IL-12 expression | increased | ≥ 10
